# In the BET-seq Pho4 binding data (Le et al. 2018):
# This is one part of the list. These are noisy estimates, calculated here from bound and input reads.
# Target: T1, Pho4 (S. cerevisiae) (UniProt P07270)
# T1 sequence: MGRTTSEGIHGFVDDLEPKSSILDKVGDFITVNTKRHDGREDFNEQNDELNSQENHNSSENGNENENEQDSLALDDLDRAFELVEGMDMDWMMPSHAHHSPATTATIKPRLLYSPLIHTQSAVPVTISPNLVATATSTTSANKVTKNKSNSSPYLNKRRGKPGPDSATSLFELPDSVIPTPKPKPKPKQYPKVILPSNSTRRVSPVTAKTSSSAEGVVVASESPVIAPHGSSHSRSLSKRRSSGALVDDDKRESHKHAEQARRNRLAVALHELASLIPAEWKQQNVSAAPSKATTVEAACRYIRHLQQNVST
# Assay: relative binding free energy (BET-seq); higher = weaker binding
# Conditions: reference: library average
row,Sequence,relative binding free energy
1,AGAGGCACGTGAAGTT,0.24 kcal/mol
2,TAGTGCACGTGTAGCT,-0.06 kcal/mol
3,GTGAACACGTGTAATG,0.08 kcal/mol
4,GTTGTCACGTGGGACT,0.07 kcal/mol
5,TTGTCCACGTGGTTTA,-0.03 kcal/mol
6,ATGGTCACGTGGTAGG,0.11 kcal/mol
7,GTCAGCACGTGGAAGG,0.15 kcal/mol
8,TTTTTCACGTGGTCAA,0.18 kcal/mol
9,GACGTCACGTGGGGGG,0.02 kcal/mol
10,TATTGCACGTGGGTAT,-0.13 kcal/mol
11,CTATTCACGTGGGTAT,0.15 kcal/mol
12,GTCTTCACGTGTGATG,0.39 kcal/mol
13,AGGTACACGTGTTGAA,0.04 kcal/mol
14,GTGATCACGTGTGGTG,0.19 kcal/mol
15,GTCTACACGTGGTGAG,0.04 kcal/mol
16,CGCTTCACGTGTTGTT,0.26 kcal/mol
17,AATAGCACGTGATTGG,-0.01 kcal/mol
18,AATGGCACGTGCGTGG,-0.18 kcal/mol
19,AGGAGCACGTGTGTGC,-0.11 kcal/mol
20,TCAGTCACGTGTTAAT,0.1 kcal/mol
21,GAGTGCACGTGTTTAG,0.02 kcal/mol
22,AGTTACACGTGCATGT,0.13 kcal/mol
23,CTTTTCACGTGGCGGG,0.18 kcal/mol
24,GGGGTCACGTGGGCAA,0.01 kcal/mol
25,GGAGGCACGTGCTAGG,-0.2 kcal/mol
26,ACGTACACGTGGGGCT,-0.08 kcal/mol

row,Sequence,relative binding free energy
1,GGGACCACGTGGGAAG,0.03 kcal/mol
2,TCCGACACGTGTGGGG,0.02 kcal/mol
3,GTGTTCACGTGTTTCA,0.16 kcal/mol
4,TTTAACACGTGGCTTG,-0.05 kcal/mol
5,GGGTACACGTGGGTTG,-0.06 kcal/mol
6,AATTACACGTGATGTG,0.15 kcal/mol
7,GGTCGCACGTGCGGGA,-0.05 kcal/mol
8,TGGGTCACGTGATGGG,0.29 kcal/mol
9,GGGTTCACGTGTTTAT,0.38 kcal/mol
10,CGTTGCACGTGATATT,0.13 kcal/mol
11,GTATGCACGTGTTACG,0.04 kcal/mol
12,TGGGACACGTGAATGT,0.27 kcal/mol
13,ATAAGCACGTGCTGGT,-0.14 kcal/mol
14,GGTGGCACGTGAGATC,0.24 kcal/mol
15,GTGCTCACGTGGGCGA,0.18 kcal/mol
16,TCGTTCACGTGGCGTT,0.19 kcal/mol
17,GGATACACGTGAGTTG,0.38 kcal/mol
18,CGGTGCACGTGTTCTG,0 kcal/mol
19,AGGCGCACGTGGGCTG,-0.21 kcal/mol
20,TTAGTCACGTGTACGA,0.09 kcal/mol
21,ATACTCACGTGTTGTA,0.05 kcal/mol
22,CTGGGCACGTGTTATG,-0.12 kcal/mol
23,GCGTGCACGTGTGTTC,0 kcal/mol
24,AGGGGCACGTGCGGTT,-0.09 kcal/mol
25,GGCAGCACGTGGGAAT,-0.05 kcal/mol
26,AAGGGCACGTGTTGAT,-0.09 kcal/mol

row,Sequence,relative binding free energy
1,AGTATCACGTGGTTCA,0.11 kcal/mol
2,TTAATCACGTGGGTTG,0.12 kcal/mol
3,AGGATCACGTGTCTGT,0.14 kcal/mol
4,TTGGCCACGTGTGTTC,-0.05 kcal/mol
5,CGGGGCACGTGGCGGG,-0.21 kcal/mol
6,GATAACACGTGAGGGA,0.36 kcal/mol
7,TGAAACACGTGATATT,0.12 kcal/mol
8,TCTCGCACGTGTTTGT,-0.07 kcal/mol
9,TGAAGCACGTGGGGAG,-0.17 kcal/mol
10,GGAGCCACGTGAGTGT,0.12 kcal/mol
11,GTCTTCACGTGCGTGT,0.2 kcal/mol
12,ATTGGCACGTGGGAAT,-0.05 kcal/mol
13,CGTGACACGTGGAGTG,-0.09 kcal/mol
14,AGGGTCACGTGTTAAC,0.27 kcal/mol
15,TATAGCACGTGTATGG,-0.01 kcal/mol
16,GTATCCACGTGAAGTG,0.43 kcal/mol
17,GTAGGCACGTGCGTAT,-0.29 kcal/mol
18,AAATACACGTGGAGGG,0.05 kcal/mol
19,GAGTGCACGTGATGTA,0.04 kcal/mol
20,AGGAGCACGTGATGCG,-0.02 kcal/mol
21,ATAGTCACGTGGGTGT,0.06 kcal/mol
22,GTGGTCACGTGGGCGC,0.05 kcal/mol
23,TATAGCACGTGGGTTA,-0.27 kcal/mol
24,TTTAGCACGTGTTGAG,-0.03 kcal/mol
25,GTTTTCACGTGAATCG,0.4 kcal/mol
26,GCTGGCACGTGAGAGT,0.11 kcal/mol

row,Sequence,relative binding free energy
1,TATGACACGTGTGGCG,0.05 kcal/mol
2,TTTGGCACGTGTAGGC,0.03 kcal/mol
3,TCGTTCACGTGCGGGA,0.27 kcal/mol
4,GTTCTCACGTGTGATG,0.26 kcal/mol
5,AGTGGCACGTGAAGTA,0.06 kcal/mol
6,GGGTCCACGTGGTGCT,-0.06 kcal/mol
7,GTTTGCACGTGAGAAT,0.32 kcal/mol
8,CGTAACACGTGTTGTT,0.03 kcal/mol
9,GGAAGCACGTGTATGG,-0.13 kcal/mol
10,GAATACACGTGGTTAG,0.05 kcal/mol
11,AGCATCACGTGGTATG,0.04 kcal/mol
12,TGTCGCACGTGTATGT,-0.02 kcal/mol
13,CATTGCACGTGTATAT,0.04 kcal/mol
14,ACGTTCACGTGGCTGT,0.21 kcal/mol
15,TCATACACGTGGGAGG,-0.08 kcal/mol
16,CTAGTCACGTGGGTAA,0 kcal/mol
17,TCTCGCACGTGTGGGA,0 kcal/mol
18,TGTGGCACGTGAATGA,0.06 kcal/mol
19,CGGGGCACGTGAGCGT,0 kcal/mol
20,TTGTACACGTGGGGTC,-0.06 kcal/mol
21,AGGCTCACGTGTGAGT,0.35 kcal/mol
22,TGGTTCACGTGCTAAG,0.3 kcal/mol
23,CTTTTCACGTGTAATG,0.26 kcal/mol
24,GGGGGCACGTGTCTGA,-0.1 kcal/mol
25,AATGTCACGTGTCAGT,0.03 kcal/mol
26,TAGAGCACGTGTGGCA,-0.06 kcal/mol

row,Sequence,relative binding free energy
1,TTTGCCACGTGGCAGT,-0.15 kcal/mol
2,AAGGACACGTGTTTTA,0.15 kcal/mol
3,TGGTGCACGTGATTCG,0.01 kcal/mol
4,TGGGGCACGTGTGGAA,0.05 kcal/mol
5,TAAGGCACGTGCGGAT,-0.13 kcal/mol
6,AGTTTCACGTGAAGTT,0.49 kcal/mol
7,TTGATCACGTGTGCGT,0.1 kcal/mol
8,ATGGCCACGTGAGGGT,0.14 kcal/mol
9,TCGTACACGTGCTTGG,0.13 kcal/mol
10,GGTGACACGTGGGTCC,0.02 kcal/mol
11,TACGGCACGTGGGATT,0.04 kcal/mol
12,ACGGGCACGTGAGTGG,0.07 kcal/mol
13,TGGTTCACGTGTAAGA,0.37 kcal/mol
14,TTCGGCACGTGTCATT,0.01 kcal/mol
15,AGGCTCACGTGTAGCG,0.35 kcal/mol
16,AATTACACGTGGGTGC,0.01 kcal/mol
17,GTTGGCACGTGGAGAA,-0.09 kcal/mol
18,CTTTTCACGTGCTGTG,0.35 kcal/mol
19,ATAGACACGTGGTGTG,-0.12 kcal/mol
20,TATTTCACGTGTGTGA,0.23 kcal/mol
21,GGGAGCACGTGTGATT,-0.04 kcal/mol
22,AAGGTCACGTGGAGTA,0 kcal/mol
23,TGTTCCACGTGCTGGG,-0.03 kcal/mol
24,AGTGGCACGTGGATAT,-0.23 kcal/mol
25,TGAGGCACGTGACGTT,0.03 kcal/mol
26,GAGTACACGTGGGTTT,-0.04 kcal/mol

row,Sequence,relative binding free energy
1,AGATTCACGTGAATAT,0.4 kcal/mol
2,GTTCTCACGTGGGTTC,0.19 kcal/mol
3,ATGTCCACGTGGGTAG,-0.03 kcal/mol
4,CGTGGCACGTGTTGAG,-0.04 kcal/mol
5,GTTTCCACGTGTTGGG,0.19 kcal/mol
6,ATGTGCACGTGGGTAC,-0.22 kcal/mol
7,ATCGGCACGTGGTAAG,-0.11 kcal/mol
8,TTTTGCACGTGCAGTG,0.03 kcal/mol
9,CTGTGCACGTGCTGGG,-0.07 kcal/mol
10,GGCTGCACGTGATCGG,0.24 kcal/mol
11,CAGGTCACGTGTTGCG,0.17 kcal/mol
12,GCCGGCACGTGTGGTG,-0.02 kcal/mol
13,ATTTTCACGTGGAGTT,0.28 kcal/mol
14,AAAAGCACGTGGGTGG,-0.23 kcal/mol
15,ATTAGCACGTGAAGTG,0.32 kcal/mol
16,TGGTTCACGTGTCGCT,0.22 kcal/mol
17,TTAAGCACGTGTGTAG,-0.1 kcal/mol
18,ACGAGCACGTGAGTGT,0.12 kcal/mol
19,GGGGGCACGTGTTGTC,-0.07 kcal/mol
20,TTCGGCACGTGTTTGC,-0.06 kcal/mol
21,GGTGGCACGTGCGGAG,-0.07 kcal/mol
22,GGCAGCACGTGTGTAA,0.12 kcal/mol
23,TTGGGCACGTGGGGGT,-0.14 kcal/mol
24,ACAAGCACGTGGGTGG,-0.2 kcal/mol
25,GCTGTCACGTGAGAGT,0.37 kcal/mol
26,GGGCTCACGTGTAAGT,0.19 kcal/mol

row,Sequence,relative binding free energy
1,TGGTACACGTGGGTTC,0.01 kcal/mol
2,ATTAGCACGTGGAGGA,-0.04 kcal/mol
3,TGTGGCACGTGTCTCG,-0.15 kcal/mol
4,GGTAGCACGTGTGTAA,-0.05 kcal/mol
5,GGGATCACGTGTGATA,0.32 kcal/mol
6,TGGTTCACGTGATCGA,0.33 kcal/mol
7,GTTATCACGTGGGGAC,0.04 kcal/mol
8,TAGTACACGTGTATAA,0.14 kcal/mol
9,GTGATCACGTGCCGGG,0.06 kcal/mol
10,GTAGTCACGTGTTATT,0.19 kcal/mol
11,TGTCACACGTGAAGTG,0.31 kcal/mol
12,AAGGGCACGTGGCTAG,-0.21 kcal/mol
13,ACGTTCACGTGTCGGG,0.19 kcal/mol
14,ATTCTCACGTGTGGAT,0.3 kcal/mol
15,GATTTCACGTGTAGGA,0.4 kcal/mol
16,TAAGTCACGTGTCAGT,0.15 kcal/mol
17,GCTTGCACGTGTGTTC,0.19 kcal/mol
18,CTAGTCACGTGAGGGA,0.2 kcal/mol
19,GACTTCACGTGAAGGG,0.35 kcal/mol
20,TATTCCACGTGGTGAT,-0.02 kcal/mol
21,GTAAGCACGTGTTAAG,0.06 kcal/mol
22,GTGTACACGTGGTCTG,-0.14 kcal/mol
23,GGTGCCACGTGCTTGT,-0.15 kcal/mol
24,TAGAGCACGTGTTTCA,0.04 kcal/mol
25,GGCTGCACGTGTGGGA,0.07 kcal/mol
26,AAAGTCACGTGAATGG,0.26 kcal/mol

row,Sequence,relative binding free energy
1,AGTGTCACGTGTCTAA,-0.02 kcal/mol
2,ACAGACACGTGTAGGT,0.07 kcal/mol
3,CGGTTCACGTGGGCGA,0.06 kcal/mol
4,TAAGACACGTGAAGGG,0.22 kcal/mol
5,TGGTGCACGTGGACTG,-0.03 kcal/mol
6,CTGGTCACGTGATGAG,0.07 kcal/mol
7,TTATTCACGTGGTGAA,0.17 kcal/mol
8,CCGGACACGTGTGGTG,0.09 kcal/mol
9,TTAGTCACGTGTGATC,0.24 kcal/mol
10,AGCGTCACGTGGGTGG,-0.05 kcal/mol
11,GTTGTCACGTGGGGTA,0.02 kcal/mol
12,CGTGTCACGTGCGGGG,0 kcal/mol
13,ATTTACACGTGTACTT,0.06 kcal/mol
14,CTTGTCACGTGTGGGA,0.15 kcal/mol
15,ATGGGCACGTGTAAGC,0.12 kcal/mol
16,ATTGGCACGTGCAGCG,-0.13 kcal/mol
17,AAAGGCACGTGGGTAA,-0.24 kcal/mol
18,CTGAGCACGTGGTATT,-0.18 kcal/mol
19,TGTGACACGTGCGGTA,0.08 kcal/mol
20,TGTCGCACGTGGGCTA,-0.21 kcal/mol
21,ATTATCACGTGTGTTG,0.17 kcal/mol
22,TCAGTCACGTGTTTAG,0.08 kcal/mol
23,GGGTGCACGTGACTCG,0.18 kcal/mol
24,AATATCACGTGATGGG,0.21 kcal/mol
25,TTAACCACGTGGCTGG,0 kcal/mol
26,TATTGCACGTGTGGGC,0.03 kcal/mol

row,Sequence,relative binding free energy
1,TGTGTCACGTGACTCT,0.23 kcal/mol
2,GTTATCACGTGCGTTG,0.19 kcal/mol
3,ATATACACGTGAGGGC,0.25 kcal/mol
4,GGAGTCACGTGTTCGG,0.17 kcal/mol
5,ATGCGCACGTGGTGGC,-0.21 kcal/mol
6,ATAGGCACGTGCGCTG,-0.12 kcal/mol
7,GTGATCACGTGTTTGA,0.2 kcal/mol
8,CAGGACACGTGTGTGG,0.01 kcal/mol
9,AATAGCACGTGAGTTA,0.17 kcal/mol
10,CGATGCACGTGATGTG,0.01 kcal/mol
11,TTAGTCACGTGCTAGG,0.08 kcal/mol
12,TGTGTCACGTGGTTTA,0.11 kcal/mol
13,GTGCCCACGTGTGGTT,0.02 kcal/mol
14,TATTGCACGTGCTGTT,-0.07 kcal/mol
15,GTACTCACGTGGGGAT,0.08 kcal/mol
16,GATATCACGTGGATTG,0.15 kcal/mol
17,AGGGACACGTGTATGA,-0.02 kcal/mol
18,TAGTTCACGTGGATAA,0.11 kcal/mol
19,GAAGACACGTGGAGGG,-0.08 kcal/mol
20,GGCGGCACGTGTAGGT,-0.03 kcal/mol
21,TGGCGCACGTGGTGGC,-0.18 kcal/mol
22,GGTTGCACGTGCGATT,0.01 kcal/mol
